This is an account of results in PubChem BioAssay AID1159614 (National Center for Advancing Translational Sciences (NCATS), 2016).

About 65 (0.1%) of roughly 45,000 compounds were called active. Calls come from the whole dose curve; as a rule, active = well fitted activation curve with a large enough effect; inconclusive = small, poorly fitted or top-dose-only effect; inactive = no such curve, though single readings can be large or run the other way. Some of the results follow.

In this experiment the target is Galactocerebrosidase (Homo sapiens) (UniProt P54803). Briefly: A Novel Cell-Based Assay to Identify Small Molecules for B -Galactocerebrosidase. Note: 0% is about no effect; nearly all actives have a fitted effect of over 65% in size. The following applies: 145M-Twi-hGALC-G270D cells (Twitcher mouse brain line with human GALC G270D), HMU-beta-Gal fluorescence, 48 h; series mostly up to 57.5 µM; activation: at the top concentration. The text has this: Lysosomal storage diseases (LSDs) are caused by genetic mutations in genes encoding proteins important for normal lysosomal function. Globoid cell leukodystrophy (GLD), mostly known as Krabbe disease, is a prototype of the neurological LSDs caused by deficiency of beta-galactocerebrosidase (GALC). In brain specimens of GLD patients, psychosine levels are substantially elevated. At elevated concentrations, psychosine becomes cytotoxic to neuronal cells, particularly to oligodendrocytes (OLG), neural cells responsible for myelin formation. Therefore, the biochemical disturbances in GLD are manifested by different degrees of brain demyelination resulting in a broad spectrum of neurological manifestations. Most of the FDA-approved therapies are based on enzyme replacement therapeutic (ERT) agents, which treat non-neurological symptoms of Gaucher disease, Fabry disease, few mucopolysaccharidoses and Pompe disease. Unfortunately, in GLD, a primarily neurological LSD, ERT agents, as large molecular weight molecules unable to cross the blood-brain barrier, which makes this an inefficacious therapeutic approach. In GLD, increasing the residual GALC activity just above the critical threshold (~10% of wild type enzymatic activity), the cytotoxic levels of psychosine will be reduced, avoiding the OLGs apoptosis and the subsequent demyelination process. This will translate in disease stabilization and amelioration of GLD patient symptoms.
UniProt P54803, sequence (P54803 whole entry, looked up): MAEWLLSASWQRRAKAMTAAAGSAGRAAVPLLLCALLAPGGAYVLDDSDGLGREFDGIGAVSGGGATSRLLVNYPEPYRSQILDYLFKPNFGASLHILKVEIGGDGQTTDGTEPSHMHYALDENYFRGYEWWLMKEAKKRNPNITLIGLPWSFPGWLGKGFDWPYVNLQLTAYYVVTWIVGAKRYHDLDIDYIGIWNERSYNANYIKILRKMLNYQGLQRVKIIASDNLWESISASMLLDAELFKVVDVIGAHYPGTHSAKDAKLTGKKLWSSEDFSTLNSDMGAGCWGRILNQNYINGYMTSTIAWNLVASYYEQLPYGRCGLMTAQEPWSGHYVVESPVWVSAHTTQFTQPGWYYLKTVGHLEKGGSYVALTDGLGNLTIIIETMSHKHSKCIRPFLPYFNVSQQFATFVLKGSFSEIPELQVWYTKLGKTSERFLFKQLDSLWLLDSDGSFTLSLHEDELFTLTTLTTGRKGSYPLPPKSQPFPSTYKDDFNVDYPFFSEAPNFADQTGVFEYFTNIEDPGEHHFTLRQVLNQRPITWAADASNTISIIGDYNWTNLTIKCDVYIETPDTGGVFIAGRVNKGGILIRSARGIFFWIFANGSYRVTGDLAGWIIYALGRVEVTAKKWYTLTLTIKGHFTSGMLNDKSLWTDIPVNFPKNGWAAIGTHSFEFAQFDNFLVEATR
A cell-based assay in 1,536-well plate format was developed to implement a quantitative high-throughput screening (qHTS) assay using GLD-disease relevant cells to identify small molecules that produce enhancements of the residual enzymatic activity levels of mutants GALC found and prevalent in GLD patients. Compounds that are active may therefore have some therapeutic application for GLD. After the treatment of live cells for a determined period, using a fluorescent GALC specific substrate, the mutant residual GALC activity is measured. This cell-based qTHS assay was used to screen part of the MLPCN library for small molecule able to increase the mutant GALC enzymatic activity. In this assay, increased fluorescent signal corresponds to enhanced levels of mutant GALC residual enzymatic activity. Activation is the desired outcome for this assay.
NIH Chemical Genomics Center [NCGC]
NIH Molecular Libraries Probe Centers Network [MLPCN]
Assay Submitter (PI): Gustavo Maegawa MD,PhD, University of Florida, Gainesville, FL
2)#Two cell lines were established for the assay: 145M-Twi-hGALC-G270D (brain-derived Twitcher cell line stably expressing human GALC-G270D) and 145M-Twi-hGALC-WT (same 145M-Twi stably expressing human GALC wild type). The Twitcher is the murine C57B/6 model for GLD with naturally occurring homozygous nonsense GALC mutation. The 145M-Twi cell line was established at Maegawa lab (Ribbens J et al 2014).
a.#Media: DMEM/F12 (1:1) with 10% fetal bovine-serum (FBS) with penicillin/streptomycin (PS-1X - 100 I.U./mL of penicillin+100 ug/mL of streptomycin).
b.#The 6-Hexadecanoylamino-4-methylumbelliferyl-b-D-galactoside (HMU-B-gal) substrate was prepared as per Wiederschain et al 1992. Using 20-mL borosilicate tubes, 2.20 mg of HMU-b-Gal was added in each tube to prepare substrate-film with a final air-nitrogen stream evaporation to remove all diluent solvents.
c.#The HMUb-Gal substrate buffer consists of 0.2 M Na2HPO4 (sodium phosphate dibasic)/ 0.1 M Citric Acid with the pH adjusted to 5.2 using HCl. Sodium Azide at 0.02% and Sodium Taurocholate (NaTC) at 1 mg/mL were added to this substrate buffer.
d.#The HMU-b-Gal stopping buffer consist of 0.5 M NaHCO3 (sodium bicarbonate) /0.5 M Na2CO3 (sodium carbonate). […] Triton X-100 at 0.25% was added.
4)#Preparation of HMU-b-Gal substrate tubes
Adding 18.6 mL of the HMUb-Gal substrate buffer to each 20-mL tube (2.20 mg of HMU-b-Gal) will reach a concentration of 0.2 mM. Vortex well the tube until the solution is fully homogenized (clear cloudy solution). […]
With `CC(C)(C)OC(=O)N1CCC(c2c(C(=O)NCCc3ccsc3)cnn2-c2ccc(F)cc2F)CC1`, the “activation” value was inactive: 5.35%. Take `COc1ccc(Cl)cc1NC(=O)c1c(NCc2cccnc2)sc2c1CCCC2`: the “activation” value is inactive: -7.94%. For `Cc1ccccc1NC(=O)Cn1c(=O)n(Cc2ccco2)c(=O)c2ccc(C(=O)NC3CCCC3)cc21`, the “activation” value is inactive: -16.5%.

Take `Cc1cc(-c2ccccc2)nc2cc(C(=O)Nc3ccc(Cl)c(Cl)c3)nn12`: the “activation” value is inactive: -14.3%. In the case of `COc1ccc2ncc3c(-c4ccccc4)nn(-c4ccc(C)c(C)c4)c3c2c1`, the “activation” value is inactive: 7.35%. For the molecule `COc1ccccc1NC(=O)CSc1ncc(CO)n1Cc1ccc(F)cc1`, the “activation” value is inactive: -1.35%. In the case of `CC(C)c1cnc2c(c1SCC(=O)c1ccc(Cl)cc1)c(=O)n(C)c(=O)n2C`, the “activation” value was inactive: 4.67%.

For the molecule `COc1cc(OC)c(NC(=O)c2nn(C)c3c2COc2ccccc2-3)cc1Cl`, the “activation” value is inactive: -7.1%. Turning to `Cc1ccccc1NC(=O)Cn1nnc(C(=O)NCc2ccco2)c1N`, the “activation” value was inactive: -5.34%. On to `C#CCOc1c(Br)cc(C2C(C(=O)OC)=C(C)NC3=C2C(=O)c2ccccc23)cc1OCC` (configuration not stated), for which the “activation” value was inactive: -14%. The value for `CCOC(=O)c1cnc2cc(Cl)c(OC)cc2c1Nc1ccc(Br)cc1C` was inactive: -9.02%; that for `COc1ccccc1N1CCN(C(=O)C2CCN(S(=O)(=O)c3cccs3)CC2)CC1` was inactive: 4.16%; that for `COc1ccccc1C(=O)NC1(C(F)(F)F)C(=O)NC(C)=C1C#N` (configuration not stated) was inactive: 2.12%. Regarding `O=C(CSc1c2c(nc3ccc(Cl)cc13)CCCC2)N1CCN(c2ccc(Cl)cc2)CC1`, the “activation” value was inactive: -15.1%. Regarding `CCOc1ccc(OC(=O)c2sc3ncn(Cc4cccc(F)c4)c(=O)c3c2C)cc1`, the “activation” value is inactive: -6.96%. Consider `CSc1ccc(CCNS(=O)(=O)c2cc(-c3cc(C)no3)ccc2C)cc1`, for which the “activation” value was inactive: -14%. For `Cc1cccc(C(=O)Nc2nnc(S(=O)(=O)N3CCOCC3)s2)c1`, the “activation” value is inactive: -24.6%.

As to `COc1ccc(Cn2nc3n(c2=O)-c2ccccc2OC3)cc1`, the “activation” value was inactive: -7.84%.

Turning to `Cc1ccc(C)c(Cn2c(=O)n(CCc3ccccc3)c(=O)c3c(C)c(C)sc32)c1`, the “activation” value is inactive: -1.25%.

In the case of `O=C(Nc1ccccc1)c1cc2c(-c3ccccc3)nn(-c3ccccc3)c2s1`, the “activation” value was inactive: 1.9%.

Regarding `Cc1ccc(-c2nnc(Nc3cccc(Br)c3)c3ccccc23)cc1S(=O)(=O)N1CCN(C)CC1`, the “activation” value was inactive: -18%. On to `COc1ccc(OC)c(NC(=O)C(Cc2ccccc2)NS(=O)(=O)c2ccc3c(c2)CCC(=O)N3)c1` (configuration not stated), for which the “activation” value is inactive: -17.4%. For the molecule `Cc1ncc(CSSCc2cnc(C)c(O)c2CO)c(CO)c1O`, the “activation” value was inactive: -17.8%. On to `CCC(=O)N1c2ccccc2CC1C(=O)NCCCN1CCN(c2ccc(F)cc2)CC1` (configuration not stated), for which the “activation” value was inactive: -16.6%. Turning to `COc1ccc(NC(=O)C(=O)Nc2ccc3nc4n(c(=O)c3c2)CCCCC4)c(OC)c1`, the “activation” value was inactive: -2.79%. As for `COc1ccc(Cl)cc1S(=O)(=O)Nc1ccc2c(c1)n(C)c(=O)n2C`, the “activation” value was inactive: -15.1%. The value for `Cc1cccc(C(=O)n2nc(-c3ccco3)nc2NCc2ccccc2)c1` was inactive: -13.9%; that for `O=C(Nc1ccc(Br)cc1)Nc1nc2c(s1)CCCCCC2` was inactive: -17.3%; that for `CCN(CC)S(=O)(=O)c1ccc2c(c1)N(CC(=O)Nc1cccc(C(C)=O)c1)C(=O)CO2` was inactive: -13.2%. Turning to `O=C(COCc1cc(-c2ccc3c(c2)OCO3)on1)Nc1cccc(O)c1`, the “activation” value was inactive: -10.8%. Take `Cc1nnc(SCC(=O)NCc2cccc(F)c2)c2nn(-c3ccccc3)c(C)c12`: the “activation” value was inactive: -17.7%. On to `COc1ccc2c(c1)c(CC(=O)OC/C=C(\C)CC/C=C(\C)CCC=C(C)C)c(C)n2C(=O)c1ccc(Cl)cc1`, for which the “activation” value was inactive: -12.2%.

In the case of `O=C(NCCn1cc(SCc2ccc(C(F)(F)F)cc2)c2ccccc21)c1cccs1`, the “activation” value is inactive: -11%.

`COc1ccc(-n2nc3c(N4CCCC(C(=O)NCc5ccccc5C)C4)nnc(C)c3c2C)cc1` (configuration not stated): the “activation” value was inactive: -39.9%.

`Cc1ccc(-n2ncc(C(=O)NCCN3CCc4ccccc4C3)c2C2CCN(C(=O)OC(C)(C)C)CC2)c(C)c1`: the “activation” value was inactive: -16%. On to `O=C(CN1C(=O)COc2ccc(S(=O)(=O)NC3CCCC3)cc21)Nc1ccc(F)c(Cl)c1`, for which the “activation” value was inactive: -7.74%.

For the molecule `CNC(=O)C1CCC(Cn2c(=O)c3sccc3n(CC(=O)Nc3ccc(C)cc3C)c2=O)CC1` (configuration not stated), the “activation” value was inactive: -3.67%. On to `Cc1cccc(NC(=O)CSc2nc(=O)n(CCN3CCOCC3)c3c2CCC3)c1`, for which the “activation” value was inactive: -20.9%.

As to `Cc1ccc(NC(=O)Nc2csc3c2CCCC3)c(C)c1`, the “activation” value is inactive: -12.5%.

With `COc1cccc(NC(=O)CN2C(=O)COc3ccc(S(=O)(=O)N4CCOCC4)cc32)c1`, the “activation” value was inactive: -9.26%. As to `COc1ccccc1CNc1ncnc2onc(-c3ccc(Cl)cc3)c12`, the “activation” value is inactive: -8.94%.

Take `CN(c1nnc(NC(=O)Nc2ccc(Br)cc2)s1)C1CCCCC1`: the “activation” value was inactive: -17.5%. In the case of `Cc1[nH]c2ccccc2c1C1(O)C(=O)N(Cc2ccccc2)c2ccc(Br)cc21` (configuration not stated), the “activation” value is inactive: -1.4%. For `CCOC(=O)c1c(NC(=O)c2cc(=O)c3c(C)cc(C)cc3o2)sc(C)c1C`, the “activation” value is inactive: -7.75%. In the case of `Cc1cc(C(=O)Nc2ccc(Cl)cc2)c2c(C)nn(-c3ccccc3)c2n1`, the “activation” value is inactive: -7.52%. In the case of `CCCS(=O)(=O)NCCc1sc2nc(-c3ccc(Cl)cc3)nn2c1C`, the “activation” value is inactive: -10.2%. Consider `CCOC(=O)N1CCc2c(sc(NCc3ccc(N(C)C)cc3)c2C(=O)Nc2ccccc2OCC)C1`, for which the “activation” value was inactive: -13%.
